# Screen size: about 310,000 compounds; about 2,200 (0.71%) showed an effect of 50% or more. Effects have a minus sign here. This is one part of the list.
# Target: human ether-à-go-go-related gene (hERG) potassium channel (human, UniProt Q12809)
# Test: primary screen, population patch clamp on CHO cells stably expressing hERG
# Chain of human ether-à-go-go-related gene (hERG) potassium channel (Q12809 whole entry, looked up): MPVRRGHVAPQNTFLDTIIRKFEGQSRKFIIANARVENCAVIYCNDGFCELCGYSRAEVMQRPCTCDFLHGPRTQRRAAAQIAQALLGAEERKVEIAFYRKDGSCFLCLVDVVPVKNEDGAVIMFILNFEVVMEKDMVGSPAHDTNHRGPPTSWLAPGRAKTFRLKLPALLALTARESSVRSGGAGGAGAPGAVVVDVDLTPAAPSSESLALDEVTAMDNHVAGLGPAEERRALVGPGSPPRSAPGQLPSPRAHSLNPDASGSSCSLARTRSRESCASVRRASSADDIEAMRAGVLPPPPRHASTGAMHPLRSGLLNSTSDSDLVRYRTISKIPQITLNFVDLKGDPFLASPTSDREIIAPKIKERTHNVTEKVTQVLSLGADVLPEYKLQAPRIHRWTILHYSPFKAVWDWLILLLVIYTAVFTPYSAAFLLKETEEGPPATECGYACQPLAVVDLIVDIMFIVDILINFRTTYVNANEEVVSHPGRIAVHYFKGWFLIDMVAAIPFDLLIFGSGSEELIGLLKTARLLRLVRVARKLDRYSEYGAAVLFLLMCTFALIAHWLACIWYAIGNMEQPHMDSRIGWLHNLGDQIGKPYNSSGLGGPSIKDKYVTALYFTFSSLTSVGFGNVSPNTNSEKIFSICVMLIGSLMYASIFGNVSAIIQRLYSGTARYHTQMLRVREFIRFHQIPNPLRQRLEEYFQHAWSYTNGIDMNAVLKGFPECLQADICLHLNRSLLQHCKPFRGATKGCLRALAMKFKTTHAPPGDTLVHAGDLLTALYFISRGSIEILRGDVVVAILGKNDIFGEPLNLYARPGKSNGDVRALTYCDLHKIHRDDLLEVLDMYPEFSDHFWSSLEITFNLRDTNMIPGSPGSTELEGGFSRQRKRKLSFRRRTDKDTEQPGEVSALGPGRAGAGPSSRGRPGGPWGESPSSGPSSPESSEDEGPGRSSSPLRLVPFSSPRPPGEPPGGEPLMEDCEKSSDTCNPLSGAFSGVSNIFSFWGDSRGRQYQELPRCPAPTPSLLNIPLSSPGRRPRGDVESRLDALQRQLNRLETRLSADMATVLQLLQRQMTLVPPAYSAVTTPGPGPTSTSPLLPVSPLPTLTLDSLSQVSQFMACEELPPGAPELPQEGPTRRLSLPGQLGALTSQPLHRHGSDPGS
row,Structure (SMILES),"hERG current change (%, negative = inhibition) at 1uM [%]"
1,Cn1c(=O)n(CCc2ccccc2)c(=O)c2c1ncn2Cc1ccccc1,11.8
2,COc1cc(-c2noc(C)c2C#Cc2ccsc2)cc(OC)c1OC,12.2
3,CCCC(=O)Nc1c2c(nn1-c1ccc(F)cc1)CS(=O)(=O)C2,9.12
4,CC(=O)OC(C(=O)NC1CCCCC1)c1ccncc1 (centres unmarked),10.1
5,O=C(NNC(=O)C1CCC1)c1ccccc1,6.93
6,CC(=NC(C)C)C1=C(O)CCC1=O,11.3
7,O=C1NC(=O)C2(Cc3ccccc3N3CCCC32)C(=O)N1Cc1ccccc1 (centres unmarked),-0.0862
8,C=CCOc1c2ccc(C(=O)NCCc3ccc(C)cc3)cc2nn1C,5.19
9,COc1ccc(/C=C/C(=O)OCc2nc3ccccc3c(=O)[nH]2)c(OC)c1,6.43
10,COc1ccc2c(c1)c(CC(=O)Nc1ccc(C)cc1)c(C)n2C(=O)c1ccc(Cl)cc1,-3.28
11,CCC12CN3CCN(CC(C3)/C1=N\O)C2,-2.57
12,OCC1(Cc2cccc(Cl)c2)CCCN(Cc2ccc(F)c(F)c2)C1 (centres unmarked),3.44
13,COc1cc2ccccc2cc1C(=O)NCCCN1CCOCC1,3.68
14,Cc1ccccc1OCCN1C(=O)NC2(CCc3ccccc32)C1=O (centres unmarked),3.63
15,CC(=O)c1ccc(NC(=O)c2ccc(COc3ccccc3[N+](=O)[O-])o2)cc1,3.96
16,CCOC(=O)c1oc2cc(OC(C)=O)ccc2c(=O)c1-c1ccc(OC)c(OC)c1,6.07
17,CCCCc1ccc(Nc2nc(N3CCOCC3)nc(N3CCOCC3)n2)cc1.Cl,10.6
18,CCOC(=O)CNC(=O)CSc1nnc(-c2ccco2)n1N,18.4
19,CC(C)OC(=O)C1C(=O)CC(C)(O)C(C(=O)OC(C)C)C1c1cccc(O)c1 (centres unmarked),4.01

row,Structure (SMILES),"hERG current change (%, negative = inhibition) at 1uM [%]"
1,CCOc1ccc(NS(=O)(=O)c2ccc3[nH]cc(C(=O)N(CC)CC)c(=O)c3c2)cc1,-27.1
2,CC(C)(C(=O)N[C@H](CO)c1ccccc1)C(=O)N[C@H](CO)c1ccccc1,5.64
3,N#C/C(=C\c1c(Cl)cccc1Cl)c1nn(-c2ccccc2)c(-n2cccc2)c1C#N,11.7
4,CC1=C(C(=O)NCc2ccccc2)C(c2ccc(C)o2)n2ncnc2N1 (centres unmarked),-5.48
5,N#CC1=C(N)Oc2n[nH]c(-c3cccs3)c2C1c1ccncc1 (centres unmarked),13.9
6,O=S(=O)(Nc1cc(S(=O)(=O)N2CCOCC2)ccc1N1CCCC1)c1cccs1,3.78
7,CCN(CC(=O)NCc1ccc(F)cc1)C(=O)c1ccc(COc2ccccc2)cc1,-2.6
8,CCN(C(=O)COC(=O)c1cnc(C)cn1)c1c(N)n(Cc2ccccc2)c(=O)[nH]c1=O,8.54
9,O=S(=O)(c1ccccc1)c1ccc(N2CCCCCC2)cc1,7.46
10,Cc1c(C(=O)NCc2ccccc2)oc2c1C(=O)CCC2,9.37
11,Cn1cc(CN2CCCC(CNS(=O)(=O)c3cccc4cccnc34)C2)cn1 (centres unmarked),11.4
12,COc1ccc(N(C)S(=O)(=O)c2ccc3c(c2)CCN3C(=O)C2CC2)c(OC)c1,14.3
13,CCN(CC)C(=O)CCc1nc2sc3c(c2c(=O)[nH]1)CCCC3,1.79
14,N#Cc1ncc(Cc2ccccc2)nc1C#N,13
15,CCOC(=O)c1ccc(NC(=S)N2CCC(C(N)=O)(N3CCCCC3)CC2)cc1,8.71
16,Cc1[nH]c(=O)[nH]c(=O)c1S(=O)(=O)N(CC(C)C)CC(C)C,17
17,CCn1c(=O)cc(OCC(=O)Nc2ccc(C)cn2)c2ccccc21,10
18,O=C(NCCCN1CCOCC1)c1ccc(CNS(=O)(=O)c2ccc(Br)cc2)cc1,0.752
19,CCn1nnc(NC(=O)c2cc(Cl)c(OC)c(Cl)c2)n1,1.21

row,Structure (SMILES),"hERG current change (%, negative = inhibition) at 1uM [%]"
1,Cc1ccc(C)c(N2CCN(C(=O)COc3cc(=O)n(C)c4ccccc34)CC2)c1,7.82
2,N#CCc1ccc(NC(=O)c2ccc(S(=O)(=O)N3CCCC3)cc2)cc1,15.4
3,CC1CCc2c(sc(NC(=O)CSc3nnc(-c4ccccc4)o3)c2C#N)C1 (centres unmarked),13.6
4,CCc1c(C)nc2cc(-c3cccc(Br)c3)[nH]n2c1=O,15.5
5,COc1cc(-c2noc(C)c2C#Cc2nccn2C)cc(OC)c1OC,7.03
6,Cc1nnc(NC(=O)C2CC(=O)N(c3ccc4c(c3)OCCO4)C2)s1 (centres unmarked),10.3
7,CCOc1ccc2c(c1)c(C(C)=O)c(C)n2-c1ccccc1,2.51
8,CC(C)Cc1cc(C(=O)N2CCC(N3CCC(C(=O)N4CCOCC4)CC3)CC2)n[nH]1,-2.21
9,COc1cccc(CNc2ncc(C(=O)Nc3cc(OC)c(OC)c(OC)c3)c(C)n2)c1,14.1
10,C/C(=N\N=C(/N)SC1CC(=O)N(c2ccc(Cl)cc2)C1=O)c1cccs1 (centres unmarked),10.3
11,O=C(CCCc1c[nH]c2ccccc12)NCC1COc2ccccc2O1 (centres unmarked),10
12,CCn1nc2cc(C(=O)NCc3cc(C(F)(F)F)cc(C(F)(F)F)c3)ccc2c1OC,12.2
13,COc1ccc(CCNC(=O)Cn2cnc3c(nnn3Cc3ccc(C)cc3)c2=O)cc1OC,16.9
14,Cc1cc(OC(F)F)ccc1NC(=S)NCCc1ccccc1,9.68
15,FC(F)(F)c1cc(-c2ccccc2)nc(N2CCCCC2)n1,16.2
16,Cc1ccc(S(=O)(=O)NNC(=O)c2ccc(NC(=O)C3CC3)cc2)cc1,15.1
17,Cc1ccc(NC2CCCN(C(=O)CCN3CCOCC3)C2)cc1C (centres unmarked),3.95
18,CCc1ccc(NCCC(=O)c2ccc(Cl)cc2)cc1,18.6

# From PMC4336329 (PLoS ONE, 2015)
